Test results published in patent publication EP0918774B9, “ANDROGEN RECEPTOR MODULATOR COMPOUNDS AND METHODS” (LIGAND PHARMACEUTICALS INCORPORATED, priority 1996, dated 1997).
Where two headings read alike, the source gives them in different places.

Assays:
[1] = tested on: Mouse Renal Ornithine Decarboxylase (ODC) Activity; format: in vivo, castrated male ICR mice; details: for % Inhibition of ODC Activity 1 day p.o.: negative number = no AR antagonist effect; for inhibition of ODC induction by testosterone propionate (in words): testosterone propionate 0.1 mg/mouse used to induce the enzyme activity
[2] = tested on: Mouse Renal Ornithine Decarboxylase (ODC) Activity
[3] = dose 1 mg/mouse, combined with TP 0.1 mg/mouse/day s.c.

Q: With `CC12CCCN1c1cc3[nH]c(=O)cc(C(F)(F)F)c3cc1CC2` (racemic) [Compound 101, (R/S)-6,7,7a,11-Tetrahydro-7a-methyl-4-trifluoromethyl-2-pyridono[5,6-g]pyrrolidino[1,2-a]quinoline] as the compound, how does the “% Inhibition of ODC Activity 3 days p.o.” value [1, 3] read?
A: 26.2%

Q: What about the “% Inhibition of ODC Activity 1 day p.o.” value [1, 3] of the same compound?
A: 31.7%

Q: With `CC12CCCN1c1cc3[nH]c(=O)c(F)c(C(F)(F)F)c3cc1CC2` (racemic) [Compound 102, (R/S)-3-Fluoro-6,7,7a,11-tetrahydro-7a-methyl-4-trifluoromethyl-2-pyridono[5,6-g]pyrrolidino[1,2-a]quinoline] as the compound, how does the “% Inhibition of ODC Activity 1 day s.c.” value ([1]; dose 1 mg/mouse, combined with TP 0.1 mg/mouse/day s.c., TP group 0%, castrated group 100% inhibition) read?
A: 25.4%

Q: For `CC(O)(CS(=O)(=O)c1ccc(F)cc1)C(=O)Nc1ccc(C#N)c(C(F)(F)F)c1` (centres unmarked) [Cas, reference compound], which “inhibition of ODC induction by testosterone propionate (in words)” value [1] is on record?
A: inhibited this induction

Q: Which results are given for `CC(=O)O[C@]1(C(C)=O)CC[C@H]2[C@@H]3C=C(Cl)C4=CC(=O)[C@@H]5C[C@@H]5[C@]4(C)[C@H]3CC[C@@]21C` [Cyproterone acetate, cyproterone acetate, reference compound]?
A: % Inhibition of ODC Activity 3 days p.o. [1, 3]: 81.7%; % Inhibition of ODC Activity 1 day p.o. [1, 3]: 91.1%; inhibition of ODC induction by testosterone propionate (in words) [1]: inhibited this induction

Q: `CC(=O)[C@H]1CC[C@H]2[C@@H]3CCC4=CC(=O)CC[C@]4(C)[C@H]3CC[C@]12C` [Prog, progesterone] was tested. Which “stimulatory activity on ODC” value ([2]; 1 mg/mouse) did it give?
A: did not show any stimulatory activity

Q: `CCC(=O)O[C@H]1CC[C@H]2[C@@H]3CCC4=CC(=O)CC[C@]4(C)[C@H]3CC[C@]12C` [Testosterone Propionate, Testosterone propionate] was tested. Which “Mouse Renal ODC activity (fold increase compared to castrated control)” value ([2]; 0.01 mg/mouse, s.c. for 3 days) did it give?
A: 1 fold

Q: What about the “Mouse Renal ODC activity (fold increase compared to castrated control)” value ([2]; 0.03 mg/mouse, s.c. for 3 days) of the same compound?
A: 10 fold

Q: And the “Mouse Renal ODC activity (fold increase compared to castrated control)” value ([2]; 0.1 mg/mouse, s.c. for 1 day)?
A: 9.7 fold

Q: And the “Mouse Renal ODC activity (fold increase compared to castrated control)” value ([2]; 0.1 mg/mouse, s.c. for 3 days)?
A: 173 fold

Q: What about the “Mouse Renal ODC activity (fold increase compared to castrated control)” value ([2]; 0.3 mg/mouse, s.c. for 1 day) of the same compound?
A: 21.9 fold

Q: And the “Mouse Renal ODC activity (fold increase compared to castrated control)” value ([2]; 0.3 mg/mouse, s.c. for 3 days)?
A: 414 fold

Q: And the “Mouse Renal ODC activity (fold increase compared to castrated control)” value ([2]; 1.0 mg/mouse, s.c. for 1 day)?
A: 26.4 fold

Q: And the “Mouse Renal ODC activity (fold increase compared to castrated control)” value ([2]; 1.0 mg/mouse, s.c. for 3 days)?
A: 707 fold

Q: And the “increase in ODC activity compared to castrated controls” value ([2]; text: highest dose, 1.0 mg/mouse/day)?
A: 700 fold
